Test results: paper PMC4196162
No constants are given. Whether binding was seen depends on the method and setting. In cells and extracts the contact can be indirect. Some entries that bind do so weakly or less than the wild type. One block for each binder: values may come before it.

What was measured:
[1] = target: ß-catenin (mouse) (mouse (endogenous in primary K19-BCL9-2 mouse tumor cells)) (UniProt Q02248); test: co-IP; primary K19-BCL9-2 mouse mammary tumor cells, whole cell lysates, Protein A sepharose; Western blot
[2] = target: T1, ß-catenin (mouse) (mouse (endogenous in primary K19-BCL9-2 mouse tumor cells)), Q02248; test: as above; conditions: remark: other sources report otherwise
T1 chain: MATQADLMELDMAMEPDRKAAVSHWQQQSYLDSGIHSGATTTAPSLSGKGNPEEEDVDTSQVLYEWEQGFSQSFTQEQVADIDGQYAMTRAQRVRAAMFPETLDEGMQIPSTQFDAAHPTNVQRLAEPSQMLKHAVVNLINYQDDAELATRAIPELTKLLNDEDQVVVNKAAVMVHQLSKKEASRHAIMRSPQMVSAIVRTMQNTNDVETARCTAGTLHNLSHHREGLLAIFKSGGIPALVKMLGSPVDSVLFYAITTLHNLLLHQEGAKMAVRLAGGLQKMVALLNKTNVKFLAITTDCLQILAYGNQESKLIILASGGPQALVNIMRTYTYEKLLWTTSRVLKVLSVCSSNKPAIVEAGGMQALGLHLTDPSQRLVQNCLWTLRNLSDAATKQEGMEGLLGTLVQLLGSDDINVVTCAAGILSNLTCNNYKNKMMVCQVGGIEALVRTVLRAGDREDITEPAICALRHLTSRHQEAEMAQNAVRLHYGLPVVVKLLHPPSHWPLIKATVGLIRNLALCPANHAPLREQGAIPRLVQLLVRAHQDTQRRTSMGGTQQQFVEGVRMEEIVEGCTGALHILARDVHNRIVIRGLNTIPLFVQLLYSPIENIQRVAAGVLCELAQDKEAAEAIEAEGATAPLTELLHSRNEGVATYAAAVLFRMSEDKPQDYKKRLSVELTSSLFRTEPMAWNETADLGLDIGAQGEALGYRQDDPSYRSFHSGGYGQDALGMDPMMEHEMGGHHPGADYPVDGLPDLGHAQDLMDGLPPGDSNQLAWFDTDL

[3] = target: T2, Pygo2 (human (endogenous in MCF7 and T47D)) (UniProt Q9BRQ0); test: co-IP; endogenous proteins, T47D whole cell lysates, Protein A sepharose; Western blot
T2 sequence: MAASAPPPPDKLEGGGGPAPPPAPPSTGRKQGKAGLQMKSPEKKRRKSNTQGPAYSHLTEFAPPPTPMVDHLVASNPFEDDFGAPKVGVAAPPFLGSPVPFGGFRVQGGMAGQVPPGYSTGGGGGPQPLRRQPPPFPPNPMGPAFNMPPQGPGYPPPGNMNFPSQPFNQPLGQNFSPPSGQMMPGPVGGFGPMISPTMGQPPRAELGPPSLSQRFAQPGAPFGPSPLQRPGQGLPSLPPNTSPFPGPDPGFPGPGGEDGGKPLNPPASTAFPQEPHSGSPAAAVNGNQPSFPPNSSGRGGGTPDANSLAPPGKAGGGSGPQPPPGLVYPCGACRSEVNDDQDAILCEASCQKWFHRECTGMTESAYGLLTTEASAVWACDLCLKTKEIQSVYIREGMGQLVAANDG

[4] = target: T2, Pygo2 (human (endogenous in MCF7 and T47D)); test: co-IP; endogenous proteins, MCF7 whole cell lysates, Protein A sepharose; mouse and rabbit IgG as negative controls; Western blot

- binding [1]: no binding
B1: BCL9-2 in primary K19-BCL9-2 mouse mammary tumor cells (protein, UniProt Q67FY2 1-1494)
chain: MRILANKTRLPHPRRREAPGSPPLSPRGHCPPAPAKPMHPENKLTNHGKTGNGGAQSQHQNVNQGPTCNLGSKGVGAGSHGAKANQISPSNSSLKNPQAGVSPFSSLKGKVKRERSVSVDSGEQREAGTPSLDSEAKEVAPRSKRRCVLERKQPYSGDEWCSGPDSEEDDKPIAAAHNCNVADPAMVTPQLGPGQTAQLPLSESSAPGPQHGPQPGLRPDVPGGGGGGVPGKPPSQFVYVFTTHLANTAAEAVLQGRAESILAYHQQNVPRAKLDQAPKVPPTPEPLPLNTPSAGTPQSQPPPLPPPPPAPGSAPPALPPEGPPEDTSQDLAPNSVGAASTGGGTGGTHPNTPTAATANNPLPPGGDPGSAPGSALLGEATPTGNGQRNLVGSEGLSKEQLEHRERSLQTLRDIERLLLRSGETEPFLKGPPGGAGEGGPPAQAPSAAQPPPSAPPGGLKKYEEPLQSMISQTQSLGGPPLEHEVPGHPQGGDMGQQMNMMMQRLGQDSLTPEQVAWRKLQEEYYEEKRRKEEQIGLHGGRPLQDMVGMGGMMGRGPPPPYHSKPGDQWPPGMGAQLRGPMDVQDPMQLRPGPPFPGPRFPGNQMQRVPGFGGMQSMPMEVPMNAMQRPVRPGMAWNEDLPPIGGPSNFAQNAVPYPGGQGEAERFMTPRVREELLRHQLLEKRSMGMQRPLGMAGSGMGQSMEMERMIQAHRQMDPAMFPGQMTGGDGLAGTPMGIEFGGGRGLLSPPMGQSGLREVDPPMGPGNLNMNMNVNMNMNMNLNVQMTPQQQMLMSQKMRGPGDMMGPQGLSPEEMARVRAQNSSGMMGGPQKMLMPSQFPNQGQQGFSGGQGPYQAMPQDMGNTPDMFSPDQSSVPMGTVGTARLSHMPLPPASNPPGSVHLASNRGLGRRPSDLTISINQMGSPGMGHLKSPTLSQVHSPLVTSPSANLKSPQTPSQMVPLPSANPPGPLKSPQVLSSSLGVRSPTGSPSRLKSPSMAVPSPGWVASPKTAMPSPGVSQNKQPPLSINSSSTLGNVEQGALPPSAPRNSSSAPPANPSSGLMNPSLPFTSSPDPTPSQNPLSLMMSQMSKYAMPSSTPLYHNAIKTIATSDDELLPDRPLLPPPPPPQGSGPGISNNQPNQMHMNPAAAQSPMGMNLPGQQPLSHEPPPTMLPSPTPLGSNIPLHPNAQGTGGSSQNSMMMAPGGPDSLNAPCGPVPSSSQMMSFPPRLQQPHGAMAPTGAGGPGLQQHYPSGMALPPEDLPTQPPGPIPPQQHLMGKGMTGRMGDAYPPGVLPGVASVLNDPELSEVIRPTPTGIPEFDLSRIIPSEKPSSTLQYFPKSENQPPKAQPPNLHLMNLQNMMAEQTPSRPPNLPGQQGVQRGLSMSMCHPGQMSLLGRTGVPPQQGMVPHGLHQGVMSPPQGLMTQQNFMLMKQRGVGGEVYTQPPHMLSPQGSLMGPPPQQNLMVSHPLRQRSVSLDSQMGYLPTPGSMANLPF

- binding [2]: no binding
B2: estrogen receptor alpha (ER) (mouse), P19785 1-599 (protein)
chain: MTMTLHTKASGMALLHQIQGNELEPLNRPQLKMPMERALGEVYVDNSKPTVFNYPEGAAYEFNAAAAAAAAASAPVYGQSGIAYGPGSEAAAFSANSLGAFPQLNSVSPSPLMLLHPPPQLSPFLHPHGQQVPYYLENEPSAYAVRDTGPPAFYRSNSDNRRQNGRERLSSSNEKGNMIMESAKETRYCAVCNDYASGYHYGVWSCEGCKAFFKRSIQGHNDYMCPATNQCTIDKNRRKSCQACRLRKCYEVGMMKGGIRKDRRGGRMLKHKRQRDDLEGRNEMGASGDMRAANLWPSPLVIKHTKKNSPALSLTADQMVSALLDAEPPMIYSEYDPSRPFSEASMMGLLTNLADRELVHMINWAKRVPGFGDLNLHDQVHLLECAWLEILMIGLVWRSMEHPGKLLFAPNLLLDRNQGKCVEGMVEIFDMLLATSSRFRMMNLQGEEFVCLKSIILLNSGVYTFLSSTLKSLEEKDHIHRVLDKITDTLIHLMAKAGLTLQQQHRRLAQLLLILSHIRHMSNKGMEHLYNMKCKNVVPLYDLLLEMLDAHRLHAPASRMGVPPEEPSQTQLATTSSTSAHSLQTYYIPPEAEGFPNTI

- binding [3]: binds
- binding [4]: binds
B3: BCL9-2 (BCL9L, B-Cell Lymphoma 9-like) (protein, UniProt Q86UU0 1-1499)
chain: MRILANKTRLPHPRRREAPGSPPLSPRGHCPPAPAKPMHPENKLTNHGKTGNGGAQSQHQNVNQGPTCNVGSKGVGAGNHGAKANQISPSNSSLKNPQAGVPPFSSLKGKVKRDRSVSVDSGEQREAGTPSLDSEAKEVAPRSKRRCVLERKQPYSGDEWCSGPDSEEDDKPIGATHNCNVADPAMAAPQLGPGQTTQLPLSESSVPGAPHGPPPGLRPDAPGGGGGGGGVPGKPPSQFVYVFTTHLANTAAEAVLQGRADSILAYHQQNVPRAKLDQAPKVPPTPEPLPLSTPSAGTPQSQPPPLPPPPPPAPGSAPPALPPEGPPEDSSQDLAPNSVGAASTGGGTGGTHPNTPTATTANNPLPPGGDPSSAPGPALLGEAAAPGNGQRSLVGSEGLSKEQLEHRERSLQTLRDIERLLLRSGETEPFLKGPPGGAGEGGPPAQAPPPPQQPPTAPPSGLKKYEEPLQSMISQTQSLGGPPLEHEVPGHPPGGDMGQQMNMMIQRLGQDSLTPEQVAWRKLQEEYYEEKRRKEEQIGLHGSRPLQDMMGMGGMMVRGPPPPYHSKPGDQWPPGMGAQLRGPMDVQDPMQLRGGPPFPGPRFPGNQIQRVPGFGGMQSMPMEVPMNAMQRPVRPGMGWTEDLPPMGGPSNFAQNTMPYPGGQGEAERFMTPRVREELLRHQLLEKRSMGMQRPLGMAGSGMGQSMEMERMMQAHRQMDPAMFPGQMAGGEGLAGTPMGMEFGGGRGLLSPPMGQSGLREVDPPMGPGNLNMNMNVNMNMNMNLNVQMTPQQQMLMSQKMRGPGDLMGPQGLSPEEMARVRAQNSSGVMGGPQKMLMPSQFPNQGQQGFSGGQGPYQAMSQDMGNTQDMFSPDQSSMPMSNVGTTRLSHMPLPPASNPPGTVHSAPNRGLGRRPSDLTISINQMGSPGMGHLKSPTLSQVHSPLVTSPSANLKSPQTPSQMVPLPSANPPGPLKSPQVLGSSLSVRSPTGSPSRLKSPSMAVPSPGWVASPKTAMPSPGVSQNKQPPLNMNSSTTLSNMEQGTLPPSGPRSSSSAPPANPPSGLMNPSLPFTSSPDPTPSQNPLSLMMTQMSKYAMPSSTPLYHNAIKTIATSDDELLPDRPLLPPPPPPQGSGPGISNSQPSQMHLNSAAAQSPMGMNLPGQQPLSHEPPPAMLPSPTPLGSNIPLHPNAQGTGGPPQNSMMMAPGGPDSLNAPCGPVPSSSQMMPFPPRLQQPHGAMAPTGGGGGGPGLQQHYPSGMALPPEDLPNQPPGPMPPQQHLMGKAMAGRMGDAYPPGVLPGVASVLNDPELSEVIRPTPTGIPEFDLSRIIPSEKPSSTLQYFPKSENQPPKAQPPNLHLMNLQNMMAEQTPSRPPNLPGQQGVQRGLNMSMCHPGQMSLLGRTGVPPQQGMVPHGLHQGVMSPPQGLMTQQNFMLMKQRGVGGEVYSQPPHMLSPQGSLMGPPPQQNLMVSHPLRQRSVSLDSQMGYLPAPGGMANLPF
